Read counts are not given, so values of variants with three or more changes are uncertain.
B1: LINE1-mini (parent)
chain: GGCAGAGCUCAACACAGCGUGGCAAAGUGGCUGUGGCUAGACUGCC

Variants of: B1
Experiment: self-cleavage, relative activity (ratio to wild type); higher = more cleavage; in vitro, sequencing; the parent is a self-cleaving ribozyme

| Variant | self-cleavage |
| --- | --- |
| G2A G5C C13A G27U | 0.03 |
| G2A A4G G27A G29U G33C G44U C45A | 0.11 |
| G2A C10G G17C G44A | 0.43 |
| G2A G5C A14C G17A | 0.01 |
| G2A C3U A26G G36C U43C | 0.16 |
| G2A C15U C31A | 0.34 |
| G2A C10A A14G C31G C42G | 0.01 |
| G2A C8U C15U A26G U28G | 0.19 |
| G2A G5A G7U A24C | 0.1 |
| G2A A6G U34A U38A | 0.04 |
| G2A A16U U32G C46U | 0.76 |
| G2A A11C A16U | 0.02 |
| G2A A4U C13G G17C C18U | 0.18 |
| G2A A16U G21C | 0.14 |
| G2A A24G C46A | 0.77 |
| G2A C23G G27C | 1.93 |
| G2A C3G C8U U9A C13A G17U G36C | 1.3 |
| G2A G5C C10A | 0.02 |
| G2A C37A C45U | 0.09 |
| G2A C10G C15A U28G | 0.02 |
| G2A C10U U20C G29A | 0.08 |

| Variant | self-cleavage |
| --- | --- |
| G2A A4U U9A C10U C23G C31U | 0.14 |
| G2A C18U A25G | 0.35 |
| G2A C18U G27U G35U | 0.1 |
| G2A C8A A14U | 0.39 |
| G2A C23G G36U | 0.04 |
| G2A C23G G36C | 0.06 |
| G2A C3U G7C A11G G30U C31U | 0.02 |
| G2A C10A G36U U38A C46U | 0 |
| G2A C15A G27A C31G G40A | 0.17 |
| G2A C3A G36U | 1.71 |
| G2A A4U C18U G35U G40A | 0.13 |
| G2A C15U G27U | 0.51 |
| G2A C18G U28C U34C | 0.59 |
| G2A C8U G44U | 0.05 |
| G2A C8U A14C A26G C46G | 0.24 |
| G2A A6G A11G G19U G40C C45A | 0.01 |
| G2A A25C G35C C46A | 0.07 |
| G2A C13G C15U U20A U34A U38G C42U | 0.39 |
| G2A C3G G19A G22A G33U | 0.22 |
| G2A G5C U9G A25U | 0.09 |
| G2A C3G G5C A26U | 0.17 |

| Variant | self-cleavage |
| --- | --- |
| G2A C10U G22A G36C G40C | 0.05 |
| G2A A14U G19C G40A | 0.11 |
| G2A A12C U20G | 0.02 |
| G2A C13G G19A | 0.09 |
| G2A A4G C8U | 0.06 |
| G2A C18U C37G G44C | 0.02 |
| G2A C3G C15A | 0.12 |
| G2A A6C G21U G35U G44U | 0.09 |
| G2A C8U A14U U20A | 0.27 |
| G2A G5U U9G | 0.27 |
| G2A C15A G21U G44A | 0.03 |
| G2A A12G A24G U28C | 0.05 |
| G2A A4U C8A C18A G27U U32G | 0.21 |
| G2A C13U G21A C23G G29C G33U C37A C46U | 0.2 |
| G2A G5C A16G G21C C42G | 0.08 |
| G2A C10G U20G G40C | 0.01 |
| G2A C13G C23A G35C | 0.73 |
| G2A C8A G19U U28A G29C | 0.06 |
| G2A G5A C10A G21C | 0.04 |
| G2A A6C G21U G27A | 1.23 |
| G2A A6G A12U G21C A41G C42U | 0.1 |

| Variant | self-cleavage |
| --- | --- |
| G2A C3A C23G A39U | 1.84 |
| G2A C10G G22A A39C C45A | 0.03 |
| G2A C15A G29C U34A | 0.2 |
| G2A C3G C23U U32G C37G | 0.9 |
| G2A C15U G17U | 0.29 |
| G2A C3U C18A | 0.43 |
| G2A A12C G27C G29U | 0.02 |
| G2A C13A G30U C31G G33U C42U | 0.17 |
| G2A C3A C15G G19U | 0.11 |
| G2A C10A G21U A24G U38C | 0.17 |
| G2A C10A C45U | 0.13 |
| G2A C10A A16C G27C | 0.03 |
| G2A C10G C13U G21C | 0.02 |
| G2A C10A C13G G17A U20G G21A A26C | 0.03 |
| G2A A6U G17C | 0.32 |
| G2A C3G C15U G33U | 0.32 |
| G2A G5A C18A G21U U28G | 0.2 |
| G2A C10A G17C G30C C31A U43A | 0.02 |
| G2A A12U C23U | 0.65 |
| G2A C3U G17U G33U | 0.24 |
